Measured values: PubChem BioAssay (NCI)
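Five compound concentrations were applied to cells in 96-well plates for 48 hours; endpoints were derived by simple linear interpolation of the resulting dose-response curve. GI50 is the concentration that inhibits growth by half. TGI: concentration producing complete growth inhibition.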 Active and inactive are the calls of the source. Cut-off read from the data, not from the text of the source: active = GI50 below about 0.43 µM; inactive = the rest.

What follows are molecules tested on NCI-H322M lung (assay: NCI-60 cell line screen, 48 h).

Row | Structure (SMILES) | TGI [µM] | GI50 [µM] | outcome
1 | CN1N=C(c2ccncc2)OC1c1ccc(Cl)cc1Cl (configuration not stated) | > 100 |  | 
2 | C=C1CC(c2ccc(O)c(OC)c2)Oc2c(OC)cccc21 (configuration not stated) | > 100 |  | 
3 | COc1ccccc1C1(c2c(OC(C)C)c(=O)c2=O)SCCCS1 | > 100 |  | 
4 | CO[C@@H]1[C@H](O)CC[C@]2(CO2)[C@H]1[C@@]1(C)O[C@@H]1CC=C(C)C | > 200 |  | 
5 | C[PH+](C)C.C[PH+](C)C.[Au] | > 100 |  | 
6 | O=C1/C(=C/c2ccc(Cl)cc2)CCC/C1=C\c1ccc(O)c(CN2CCCCC2)c1 | 49 |  | 
7 | CC[C@H](CC[C@@H](C)[C@H]1CC[C@H]2[C@@H]3CC=C4C[C@@H](O)CC[C@]4(C)[C@H]3CC[C@]12C)C(C)C | > 100 |  | 
8 | CCOC(=O)C(NC(=O)CC)(C(F)(F)F)P(=O)(OCC)OCC (configuration not stated) | > 100 |  | 
9 | COc1ccc(-c2c3ccccc3c(-c3ccc(OC)cc3)c3ccccc23)cc1 | > 100 |  | 
10 | COc1ccc(O)cc1C=O | > 100 |  | 
11 | O=c1ccc2ccc(O)c3c4c(=O)ccc5ccc(O)c(c1c23)c54 | 10.9 |  | 
12 | Cc1cc(=O)[nH]c(NN2C(Cl)C(=O)C2c2ccc(O)cc2)n1 (configuration not stated) | 23.1 |  | 
13 | COc1nc(C(=O)O)c(Cl)c(OC)c1Cl | > 100 |  | 
14 | COc1c(C)c(OC)c2c(c1O)[C@@H]1[C@@H]3Cc4c(OC)c(C)c(OC)c(O)c4[C@H](CNC(=O)c4ccc5ccccc5n4)N3[C@@H](C#N)[C@H](C2)N1C | 0.00129 |  | 
15 | C[C@]12CC[C@@H]3c4ccc(OS(N)(=O)=O)cc4CC[C@H]3[C@@H]1CCC2=O | > 100 |  | 
16 | COc1ccc(Nc2nc(C#N)c(N)s2)cc1 | > 100 |  | 
17 | Cc1cc(C)c(S(=O)(=O)N2CCN(c3cc4c(cc3F)c(=O)c(C(=O)O)cn4C3CC3)CC2)c(C)c1 | > 100 | 5.19 | 
18 | COc1cc(/C=C2\CCC(C)C3=C(c4cc(OC)c(OC)c(OC)c4)C(C#N)=C(N)OC32)cc(OC)c1OC (configuration not stated) | 99.7 |  | 
19 | Cn1cc(-c2ccc(-c3cn(C)c4ncccc34)[nH]2)c2cccnc21 | > 100 | 21 | 
20 | Cc1ccc(-n2c(C)n[nH]c2=O)cc1 | > 100 |  | 
21 | O=S(=O)(/N=C(\NO)Nc1ccc(Cl)cc1)c1cc2ccccc2o1 | 56.3 |  | 
22 | NCc1ccc(O)c(O)c1 | > 100 |  | 
23 | Cn1ncc(NCCn2cnc3c2c(=O)n(C)c(=O)n3C)c(Cl)c1=O | > 100 |  | 
24 | COc1cccc(C2SCC(=O)N2c2ccc(-c3ccc(-n4c(-c5ccccc5)nc5ccccc5c4=O)cc3)cc2)c1OC (configuration not stated) | > 100 |  | 
25 | Cc1c(-c2ccc(O)c(O)c2)oc(=O)c2c(O)cc(O)cc12 | 49.1 | 16.7 | 
26 | CCCOc1cc2c(cc1O)CC[C@@H]1[C@@H]2CC[C@]2(C)[C@@H](O)CC[C@@H]12 | > 57.5 |  | 

Row | Structure (SMILES) | TGI [µM] | GI50 [µM] | outcome
27 | CO/N=C(\COc1ccc2c(=O)cc(-c3ccccc3)oc2c1)c1ccc(F)cc1 | > 100 | > 100 | 
28 | C=C1CC[C@@H]2C(C)(C)C(O)CCC2(C)C1COc1ccc2ccc(=O)oc2c1 (some centres not stated) | 30.8 |  | 
29 | COC(=O)[C@H](Cc1c[nH]c2ccccc12)NC(=O)OCC1OC(n2cc(C)c(=O)[nH]c2=O)CC1N=[N+]=[N-] (some centres not stated) | > 100 |  | 
30 | COC(=O)/C(C#N)=C1\CCC(Nc2cccc(C(F)(F)F)c2)N1C (configuration not stated) | > 100 |  | 
31 | CC1(C)CSCC(C)(C)C(=N/N)/C1=N\N | > 100 |  | 
32 | Cc1ccc2c3c4c(ccc13)C(C)(C)OC4=C(C(C)C)C2=O | > 100 |  | 
33 | C=CCCCC(=O)CCC(=O)OCC1O[C@@H](O[C@@H]2C(O)[C@@H](OC(C)=O)C(C)O[C@H]2O[C@H](CC=C)CCCCC)C(O)[C@@H](OC(=O)/C(C)=C/C)[C@@H]1OC(=O)/C=C/c1ccccc1 (some centres not stated) | > 50 | 1.51 | 
34 | CCN(CCCl)CCCCNc1c2ccccc2nc2ccc(OC)cc12 | 4.75 |  | 
35 | O=c1c2sc3ccccc3c2nnn1-c1ccc(F)c(Cl)c1 | > 100 | 6.57 | 
36 | O=C(CCl)Nc1ccc2c(Nc3cc(O)ccc3Cl)ncnc2c1 | 10.2 | 5.19 | 
37 | C[N+](C)(C)CC1CCc2ccccc2C1=O (configuration not stated) | 33.4 |  | 
38 | Cc1cc(Br)ccc1NC1=CC(=O)C(=O)c2ccccc21 | > 100 |  | 
39 | O=C(Nc1ccc(-n2ccc3c(NC(=O)c4ccccc4)nccc32)cc1)c1cccc(C(F)(F)F)c1 | > 34.1 | 3.87 | 
40 | Cc1c(C(=N)N)oc2ccccc12 | > 100 |  | 
41 | COc1cc2c3c(n(CCCNCCCNCCCn4c5c(c6cc(OC)c(OC)cc6c4=O)C(=O)c4ccccc4-5)c(=O)c2cc1OC)-c1ccccc1C3=O | > 100 | 6 | 
42 | CCOC1c2cc(OC)c(OC)cc2-c2ccc3ccccc3c2N1C (configuration not stated) | 70.4 |  | 
43 | COc1ccc(NC(=O)c2sc3nc(C)c(C(=O)/C=C/c4ccccc4)cc3c2N)cc1 | 5.84 | 1.49 | 
44 | CCOC(=O)C(C)(C)Oc1ccc(Cl)cc1 | > 1000 |  | 
45 | C[C@H](NS(=O)(=O)c1ccc(NC(=O)c2ccccc2)cc1)C(=O)O | > 100 |  | 
46 | CCCCCC/C=C\CCCCCCCCCc1cc(O)cc(OC)c1O | 4.86 | 0.397 | 
47 | CC(=O)N(C)C=C1C(=O)N(C)C(=O)N(C)C1=O | > 100 |  | 
48 | O=C1c2ccccc2C2(O)Nc3c(ccc4ccccc34)C12O (configuration not stated) | > 100 |  | 
49 | O=C1CS/C(=N/S(=O)(=O)c2ccc(N3N=C4c5ccccc5CC4C3c3cccs3)cc2)N(c2ccccc2)C1 (configuration not stated) | 56.3 | 16.9 | 
50 | CCOC(OC1=CCCC1)C(C)[Se]c1ccccc1 (configuration not stated) | > 100 |  | 
51 | COc1ccc(/C=C/C(=O)Oc2ccc(/C=C3\CCCCC3=O)cc2)cc1 | > 100 |  | 
52 | CC(O)C1(CNc2cc(Cl)nc(N)n2)CCCC1 (configuration not stated) | > 100 |  | 

Row | Structure (SMILES) | TGI [µM] | GI50 [µM] | outcome
53 | Oc1cccc2cc(Cl)cnc12 | > 100 |  | 
54 | CN(C)c1ccc(Cc2cc(C(C)(C)C)cc(C(C)(C)C)c2O)cc1 | 40.4 |  | 
55 | C[Si](C)(C)CC(N)=O | > 100 |  | 
56 | CCOC(=O)C1N(S(=O)(=O)c2ccc(C)cc2)CCC12C(c1ccc(OC)c(OC)c1)=Nc1ccccc12 (configuration not stated) | > 100 |  | 
57 | COc1cc(C2CC(C)(N3CCCC3)Oc3cc4c(cc32)OCO4)cc(OC)c1OC (configuration not stated) | > 100 |  | 
58 | CC(C)=NN/C(=N\S(=O)(=O)c1cc2ccccc2s1)Nc1ccc(Cl)cc1 | > 100 |  | 
59 | COC1CC(OC)C2OC(c3ccccc3)OCC2O1 (configuration not stated) | > 100 |  | 
60 | COc1ccc(COC(=O)NNC(=O)C2CSC(c3ccccc3)N2C(C)=O)cc1 (configuration not stated) | > 100 |  | 
61 | CC1=Nn2c(nnc2-c2ccccc2Cl)NC(C)(C)C1 | > 100 |  | 
62 | COc1cc(C(=O)/C=C/c2cc(-c3cc(OC)c(OC)c(OC)c3)n[nH]2)cc(OC)c1OC | 4.86 | 2 | 
63 | Clc1ccc(CN2COc3c(ccc4cccnc34)C2)cc1Cl | 15.5 | 1.52 | 
64 | O=S(=O)(N/N=C/c1c(Cl)cccc1Cl)c1ccccc1 | > 100 |  | 
65 | COc1ccc2c(c1)CC[C@@H]1C2CC[C@]2(C)C(=O)N(CCN3CCCC3)C(=O)CC12 (some centres not stated) | 65.6 |  | 
66 | Cc1noc(NS(=O)(=O)c2ccc(NC(=O)c3ccc4[nH]c5ccccc5c(=O)c4c3)cc2)c1C | 90.9 |  | 
67 | O=C(c1c(Cl)cc(Cl)cc1Cl)N(Cc1cccnc1)C(=S)N(Cc1cccnc1)C(=O)c1c(Cl)cc(Cl)cc1Cl | 25.1 |  | 
68 | C=C1C[C@H](O)[C@H]2C(C[Se]c3ccccc3)C(=O)O[C@@H]2[C@H]2[C@H](C)C(O)C[C@@H]12 (some centres not stated) | > 100 |  | 
69 | CC(C)(C)c1ccc2c(c1)S(=O)(=O)Nc1cccc(c1)NS(=O)(=O)c1cc(C(C)(C)C)ccc1OCCOCCO2 | > 100 |  | 
70 | O=C(Nc1ccc(Cl)cc1)Oc1ccc(C(=S)Nc2ccc(Br)cc2)cc1 | 68.9 |  | 
71 | C[C@]12CC[C@H](O)C[C@@H]1CC[C@@H]1[C@@H]2CC[C@]2(C)[C@@H](c3cc(C(F)(F)F)n[nH]3)CC[C@@H]12 | 22.5 |  | 
72 | c1ccc(C2=NOC3COc4ccccc4OCC23)cc1 (configuration not stated) | > 100 |  | 
73 | N#Cc1c(-c2ccc(Cl)cc2)cc(-c2cc(O)ccc2O)nc1N | 18 | 1.22 | 
74 | Cn1cccc(C(=O)c2ccccc2)c1=O | > 100 |  | 
75 | O=[N+]([O-])c1ccc(/C(=C\c2ccccc2)Cn2ccnc2)cc1 | > 100 |  | 
76 | CCOC(=O)C(C(N)=O)c1nc2cc([N+](=O)[O-])ccc2nc1/C=C(\O)c1ccccc1 (configuration not stated) | 71.1 |  | 
77 | CN(C)CCCNC(=S)S | > 100 |  | 
78 | CN1CCN(Cn2nc(COc3ccc(Cl)cc3)n(/N=C/c3ccc(-c4ccc(Cl)cc4Cl)o3)c2=S)CC1 | 22 |  | 

Row | Structure (SMILES) | TGI [µM] | GI50 [µM] | outcome
79 | O=c1[nH]c2ccccc2nc1CBr | 62.1 |  | 
80 | O=C(/C=C/c1ccc(OCc2ccccc2)c(OCc2ccccc2)c1)OCc1ccccc1 | > 100 |  | 
81 | Cc1ccc2nc3ccccc3c(NCc3ccccc3)c2c1 | 9.49 | 2.23 | 
82 | CCN(CC)C(=O)c1c(Cl)cc(N(CC)CC)oc1=O | > 100 |  | 
83 | CC(=O)Oc1cc2c[n+](C)c3c4cc(OC(C)=O)c(OC(C)=O)cc4ccc3c2cc1OC(C)=O | > 46.1 |  | 
84 | O=C1C=CC2(C=C1)CCC(=O)O2 | 44.3 |  | 
85 | CC(=O)CC1(O)C(=O)c2c(Br)sc(Br)c2C1=O | > 100 |  | 
86 | C=CCNC(=O)NNC(O)(C(=O)OCC)C(F)(F)F (configuration not stated) | > 100 |  | 
87 | Cn1ccnc1Cn1cc(-c2cccc(-c3cn[nH]c3)c2)cn1 | > 100 |  | 
88 | CC(=O)OCCOCn1cc(C=O)c2ccccc21 | > 100 |  | 
89 | CO[C@]12C#CC=CC#C[C@@H](O)[C@]3(CCC1)O[C@@]23c1cccc(O)c1 | > 100 |  | 
90 | O=C(/C=C/c1ccc2c(c1)OCO2)NCc1ccco1 | > 100 |  | 
91 | O=C1NC(=O)C2C1c1[nH]c3ccccc3c1C1CCCC12 (configuration not stated) | > 100 |  | 
92 | C=C[C@@]1(C)CC2(C=C(CO)C(O)O2)Oc2c1c(=O)oc1cccc(C)c21 (some centres not stated) | 52.6 |  | 
93 | C=C(CC[C@@H](C)[C@H]1CC[C@H]2[C@@H]3C[C@@H](O)[C@H]4C[C@@H](O)CC[C@]4(CO)[C@H]3CC[C@]12C)C(C)C | 12 |  | 
94 | COc1cc2c(c(OC)c1)C(C)=NC(C)C2 (configuration not stated) | > 100 |  | 
95 | Cc1c(CN)c(C)c(CN)c(C)c1CN | > 100 |  | 
96 | CCOC(=O)[C@@]12C(C)=CC(=O)O[C@]1(C)C[C@H]2C#N | > 100 |  | 
97 | CC(C)(C)c1cc(C(C)(C)C)c2c(c1O)OC(=O)CS2 | 91.3 |  | 
98 | COC(=O)c1ccccc1C1CN=NC12Cc1c(C)cccc1C2=O (configuration not stated) | > 100 |  | 
99 | CS(C)(=O)=O |  |  | inactive
100 | c1ccc2c(c1)Sc1ccccc1N2CC1CN2CCC1CC2 (configuration not stated) | 23.7 |  | 
101 | Cc1ccc(N=Nc2c(O)c(S(=O)(=O)O)cc3cc(S(=O)(=O)O)ccc23)c(C)c1 | > 100 |  | 
102 | Nc1c(C(=O)Nc2ccccc2)sc2nc3c(cc12)C(O)CCC3 (configuration not stated) | > 100 | 0.513 | 
103 | Cc1nc2c(n1-c1ccc(Br)cc1)C(=O)c1ccccc1C2=O | > 68.2 |  | 
104 | O=[N+]([O-])[O][Sn]([O][Sn]([O][N+](=O)[O-])([c]1ccccc1)[c]1ccccc1)([c]1ccccc1)[c]1ccccc1 | > 100 | > 100 | 
